Assay results as given in PubChem BioAssay AID1508621 (National Center for Advancing Translational Sciences (NCATS), 2021).
This list was built around the results that the source calls inconclusive (neither active nor inactive); the mix of calls is not that of the screen. Potencies beside an inconclusive call are fits to weak or partial responses and may not hold up. Active and inactive are the calls of the source. The call rests on the fitted dose curve; in most records, active means well fitted inhibition curve with a large enough effect; inconclusive means small, poorly fitted or top-dose-only effect; inactive means no such curve, though single readings can be large or run the other way.

assay: Confirmatory qHTS for Identification of Small Molecule Inhibitors of Huntingtin Promoter Activity; conditions: HEK293 HTT promoter firefly luciferase reporter, 24 h; series mostly up to 57.5 µM; activity change, negative = inhibition: at the top concentration; further: nearly all actives have a fitted effect of over 65% in size;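 on activity change, negative = inhibition: 0% = vehicle control and -100% = zero luminescence signal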
Method in brief: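 HEK293 luciferase reporter cells, 2,500/well, cultured 24 h, then exposed to compounds at up to 57.5 uM final for 24 h at 37C. Firefly luciferase luminescence read; normalized to vehicle (0%) and zero RLU (-100%).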
Potency means the concentration at half of the fitted maximal effect; tags describe the fitted curve by direction and shape.

Potency, inconclusive:
COc1ccccc1CCNC(=O)C(=O)NCC(c1cccs1)S(=O)(=O)c1ccccc1 (stereo not given) 26.9 µM [inhibitor, single point]
COc1ccc(CCNC(=O)Cn2nc(C)c3c(C)n(-c4ccc(C)cc4)nc3c2=O)c(OC)c1 3.79 µM [inhibitor, partial curve]
O=C(Nc1ccc(F)cc1)C1CCN(S(=O)(=O)c2ccc3c(c2)CCCN3C(=O)C2CCC2)CC1 26.9 µM [inhibitor, partial curve]
CCOc1ccc(NC(=O)CN(c2ccc(Cl)cc2C)S(=O)(=O)c2ccccc2)cc1 26.9 µM [inhibitor, partial curve]
COc1ccc(-c2noc(N3CCN(c4ccc(C)cc4)C(C)C3)n2)cc1OC (stereo not given) 21.3 µM [inhibitor, single point]
Cc1ccc(NC(=O)C2CCN(S(=O)(=O)c3ccc4[nH]c5c(c4c3)CCCCC5)CC2)cc1 21.3 µM [inhibitor, single point]
CC(C)C(=O)N1c2ncnn2C2(CCCCC2)[C@@H]2CCCC[C@@H]21 23.9 µM [inhibitor, single point]
CCOC(=O)C1CCC(CN(Cc2ccccc2)S(=O)(=O)c2ccc(Cl)cc2)CC1 (stereo not given) 37.9 µM [inhibitor, single point]
COc1ccc(NC(=O)c2sc3nc4c(cc3c2N)CCCCCC4)cc1 37.9 µM [inhibitor, single point]
COc1ccc(CNC(=O)c2cccc(N3CCCS3(=O)=O)c2)cc1OC 0.675 µM [inhibitor, full curve]
Cc1ccc(SCc2nc(-c3ccc(C(=O)NCc4ccccc4Cl)cc3)oc2C)cc1 13.5 µM [inhibitor, partial curve]
CC(C)c1ccc(CNC(=O)c2ccc(N3CCCC3)c(NC(=O)NCc3ccccc3)c2)cc1 10.7 µM [inhibitor, partial curve]
Cc1cc(NC(=O)Cn2c(=O)oc3cc(S(=O)(=O)N4CCCC4)ccc32)ccc1Br 15.1 µM [inhibitor, partial curve]
CCC1CCCCN1C(=O)CSc1nc(-c2ccc(OC)c(OC)c2)cc(C(F)(F)F)n1 (stereo not given) 21.3 µM [inhibitor, partial curve]
CCCCN(CC)C(=O)C1CCC(CNS(=O)(=O)c2cccc3nsnc23)CC1 (stereo not given) 21.3 µM [inhibitor, partial curve]
COC(=O)c1c(C)oc2ccc(N(C(=O)c3ccncc3)S(=O)(=O)c3cc(C)ccc3C)cc12 9.53 µM [inhibitor, partial curve]
CCn1c(=O)n(CC)c2cc(N3CCCCC3)c(NC(=O)Nc3cc(Cl)ccc3OC)cc21 23.9 µM [inhibitor, partial curve]
O=C(Nc1cccc(C(F)(F)F)c1)C1CCCN1S(=O)(=O)c1cccc2nsnc12 (stereo not given) 23.9 µM [inhibitor, partial curve]
CCCCN(C)S(=O)(=O)c1cc(-c2cc(C)no2)ccc1C 21.3 µM [inhibitor, partial curve]
Cc1ccc(Cl)cc1-n1ncc2c(NC3CCCCC3)ncnc21 5.36 µM [inhibitor, partial curve]
Cc1nc(-c2ccc(S(=O)(=O)Nc3ccc(C)c(N(C)C)c3)cc2)co1 8.49 µM [inhibitor, partial curve]

Potency, active:
Cc1cc(C)c(NS(=O)(=O)c2ccc(-c3cnc(C4CC4)o3)cc2)c(C)c1 0.675 µM
O=C1C2=C(Nc3ccccc3SC2c2ccc(C(F)(F)F)cc2)c2ccccc21 (stereo not given) 19 µM
COc1ccccc1N=c1scc(-c2ccc(S(=O)(=O)N3CCCC3)cc2)n1C 4.78 µM
Cc1ccc(CNC(=O)c2c(Nc3c(C)cccc3C)sc(C(=O)c3ccccc3)c2N)cc1 9.53 µM

Activity change, negative = inhibition, inactive:
N#CC[C@H](C1CCCC1)n1cc(-c2ncnc3[nH]ccc23)cn1 4.44%
Cn1c(=O)n(C)c2cc(NS(=O)(=O)c3ccccc3)c(NCc3ccccc3)cc21 4.2%
O=C(CSc1nccn1Cc1ccco1)Nc1cc(C(F)(F)F)ccc1Cl -16%
Cc1ccc2nc(CSc3nnc(NC(=O)COc4ccccc4)s3)cc(=O)n2c1 1.77%
CN[C@H]1[C@@H](O)[C@@H]2O[C@@H]3O[C@H](C)CC(=O)[C@]3(O)O[C@@H]2[C@@H](NC)[C@H]1O -9.55%
